This is an account of results in PMC4199508.

Changes are numbered by the printed parent chain. These are yes or no findings as the source states them, for the method shown. In cells and extracts the contact can be indirect. Some binding calls cover weakened binding; strength is not graded here. Where a sequence is shown, tags or fusion partners need not be part of it.

In experiment [1] the target is T1, Tpz1-W498R,I501R (myc-tagged, expressed in fission yeast) (Schizosaccharomyces pombe) (UniProt O14246).
T1 sequence: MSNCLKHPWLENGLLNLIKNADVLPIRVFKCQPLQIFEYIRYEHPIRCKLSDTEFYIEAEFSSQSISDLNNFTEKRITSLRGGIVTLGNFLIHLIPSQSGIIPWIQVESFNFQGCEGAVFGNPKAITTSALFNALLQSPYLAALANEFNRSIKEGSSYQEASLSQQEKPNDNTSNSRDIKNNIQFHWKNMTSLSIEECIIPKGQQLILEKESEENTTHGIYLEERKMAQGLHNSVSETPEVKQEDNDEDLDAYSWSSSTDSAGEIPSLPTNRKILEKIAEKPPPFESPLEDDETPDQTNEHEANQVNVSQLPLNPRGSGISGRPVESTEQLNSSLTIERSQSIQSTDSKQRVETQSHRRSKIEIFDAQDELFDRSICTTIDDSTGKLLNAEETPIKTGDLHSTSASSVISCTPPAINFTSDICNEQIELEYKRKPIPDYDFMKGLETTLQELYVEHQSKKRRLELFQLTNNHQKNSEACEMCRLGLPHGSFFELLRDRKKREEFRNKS
The experiment in a line: co-IP; fission yeast cell extracts; lysis and wash buffer 50 mM Tris pH 8.0, 150 mM NaCl, 10% glycerol, 5 mM EDTA, 0.5% NP40; IP with anti-myc or anti-FLAG and Dynabeads Protein G, western blot; Tpz1-Pot1 also in ccq1Δ poz1Δ cells (anti-myc IP of Tpz1-myc). In general terms: A western blot detects proteins with antibodies after separation by electrophoresis.

In experiment [2] the target is T2, Tpz1-Y439R,L445R,L449R (myc-tagged, expressed in fission yeast) (Schizosaccharomyces pombe) (UniProt O14246).
T2 sequence: T1 sequence with Y439R, L445R, L449R, R498W, R501I
The description is as above.

B1: Pot1-FLAG (expressed in fission yeast) (protein, UniProt O13988 1-555)
chain: MGEDVIDSLQLNELLNAGEYKIGELTFQSIRSSQELQKKNTIVNLFGIVKDFTPSRQSLHGTKDWVTTVYLWDPTCDTSSIGLQIHLFSKQGNDLPVIKQVGQPLLLHQITLRSYRDRTQGLSKDQFRYALWPDFSSNSKDTLCPQPMPRLMKTGDKEEQFALLLNKIWDEQTNKHKNGELLSTSSARQNQTGLSYPSVSFSLLSQITPHQRCSFYAQVIKTWYSDKNFTLYVTDYTENELFFPMSPYTSSSRWRGPFGRFSIRCILWDEHDFYCRNYIKEGDYVVMKNVRTKIDHLGYLECILHGDSAKRYNMSIEKVDSEEPELNEIKSRKRLYVQNCQNGIEAVIEKLSQSQQSENPFIAHELKQTSVNEITAHVINEPASLKLTTISTILHAPLQNLLKPRKHRLRVQVVDFWPKSLTQFAVLSQPPSSYVWMFALLVRDVSNVTLPVIFFDSDAAELINSSKIQPCNLADHPQMTLQLKERLFLIWGNLEERIQHHISKGESPTLAAEDVETPWFDIYVKEYIPVIGNTKDHQSLTFLQKRWRGFGTKIV
For B1, the binding result in experiment [1] and in experiment [2] was “binds” in each case.
